The RNAGym collection of RNA variant scans (doi:10.7554/elife.90254)
Read counts are not given, so values of variants with three or more changes are uncertain.

B1: LINE1-mini (parent)
chain: GGCAGAGCUCAACACAGCGUGGCAAAGUGGCUGUGGCUAGACUGCC

Variants of: B1
Assay: self-cleavage, relative activity (ratio to wild type); higher = more cleavage; in vitro, sequencing; the parent is a self-cleaving ribozyme

| Variant | self-cleavage |
| --- | --- |
| GGAAGAGCUCAACACAGCGUCGCAAAGUGGCUGUGGCUAGAAUGCC | 0.16 |
| GGAAUAGCUCAACACAGCUUGGCAAAGUGGCUGUGGCUAGACUGCC | 0.14 |
| GGAAUAGCUCAGCACAGUGUGGCUAAGUGGUUGUGGCUAGACUGCC | 0.04 |
| GGAAGAGCUCAACACAGCGUAGCAAAGUGGUUGUGGCUAGACUGCC | 0.07 |
| GGAAGAACUCAACACAGCGUGGCAAAGCGGCUGUGGCUAGACUGCC | 0.12 |
| GGAAGACUUCAACACAGCGUGGCAAAGUGGCUGUGGCUUGACUCCC | 0.37 |
| GGAAGAGCUCAACACAGCAUGACAGAGUGGCUGUGGCCAGACUGCC | 0.1 |
| GGAAGAUCUCAAUACAGCGUGGCAAAGUGGCUGUGGCUAGACUGCC | 0.31 |
| GGAAGACCACAGCACAGCGUGGCAACGAGGGUGUGGCUAGACUGCC | 0.05 |
| GGAAGAACUCAAAACAGCGUGGCAAAGUGGCUGUGGCUAGACUGCC | 0.19 |
| GGAAGACCUCAACACAGCGUGGCAAAGGGGCUGUGGCUAGAUUGCC | 0.04 |
| GGAACGGCUCAACACAGCGUGGCAAAGUGGCUCUGGGUAGACUGCC | 0.37 |
| GGAAAAGCUAAACACAGCGUGGAACAGUGGCGGUGGCUAGACUGCC | 0.01 |
| GGAAGAGCUCAACACAGCAGCGCAAAGUGGCUGUGGAUAGACUGCC | 0.04 |
| GGAAGAGCUCAACACAACGUGGCAAAGUGGCUGCGGCUAGACUGCU | 0.09 |
| GGAACAGCUCAACACAGCGUUGCAAAGUGGCUGUGGCUAGACUGCC | 1.46 |
| GGAAGAGCUCAACACAGCCUGGCUAAGUGGCUGUGGCUAGACUGCC | 0.02 |
| GGAAGAGCUCAACACAGCAUGGCAAAGUGGCUGUGGCUACACUGCC | 0.11 |
| GGAAGAACUCAUCACAGCGUGGCUAAGUCGCUAUGGCUAGACUGCC | 0.16 |
| GGAAUAGCUCAACAAAGCGUGGCAAAGUUGCUGUGGCUUGACUGCC | 1.02 |
| GGAAGAGCUCAACACAGCAAGGCAAAGUGGCUGUGACUAGACUGCC | 0.31 |
| GGAAGACCUCAACACAGCGUGGCAAAGUGGCUGUGGCUAGACCGCC | 0.08 |
| GGAAAAGUUAAACGCAGCGUGGCAAAGUGGCUGUGGCUAGACUGCC | 0.1 |

| Variant | self-cleavage |
| --- | --- |
| GGAACAGCUCAACACAGCGUGGCAAAGUGGAUGUGGCUAGACUGCC | 0.07 |
| GGAAGAGCUCAACACAGCGUAGAAAAGUCGCUGUAGCUAGACUGCC | 0.31 |
| GGAAUAGCUCAACACAGCGUGGCAAAGUGGCUGUGGCUAGAAUGCC | 0.15 |
| GGAAGAGCUCAACACAGCUCGGCAAAGCGGACGUGGCUAGACUGCC | 0.01 |
| GGAAGAGCUCAACACACCUUGGCAAAGUGGCUGUGGCUAAAAUGCC | 0.05 |
| GGAAGAGCUCAACACAACGUUGCAAAGUGGCUGUGGCUAGACUGCC | 0.25 |
| GGAAGAGCUCAACACAGCUUGGCAAAGUGGAUGUGGCUGGACUGCC | 0.08 |
| GGAAUAGCGCAACACAGCGUGGCAAAGUGGCUGUGGAUAGACAGCC | 0.19 |
| GGAAAAGCUCAACACAGCGUGGCACAGUGGCUGUGGCUAGACUGCC | 0.63 |
| GGAAGAGCUCAACACAGCAUGGCAAAGUGGCUGUGGCUGGACUGCC | 0.17 |
| GGAAGAGCUCAACACAGCCUGGCAAAGUGGCUGUGGGUAGACUGCC | 0.03 |
| GGAAGAACUCAACACAACGUGGCAAAGUGGCUGUGGCUAGACUGCC | 0.2 |
| GGAAUAGCUCAAAACAGCGUGGCAAAGUGGCUGUGGGUAGACUGCC | 0.59 |
| GGAAGACUUCUACACAGCGUGGUAAAGUGGCUGUGGCUAGACUGCC | 0.07 |
| GGAAGAGCUCAACACAUCGUGGAAAAGUGGCUGUGGCUAGACUGCC | 0.24 |
| GGAACAGCUCAACACAGCGUGGCAAAGUGGUUGUGGCUAGAGUGUC | 0.17 |
| GGAAGACCUCAACACAGCGUGGCAAAGUGGCUGUGUCUAGACUGCC | 0.09 |
| GGAAGAGCUCAACACAGCGUGGCAAAGUGGCUGUGGUUAGACUGGC | 0.17 |
| GGAAGACCUCAACACAGCGUGGCAAAGUGGCUCUGGCUACACUGCC | 0.03 |
| GGAAAAGCUCGACACAGCGUGGCAAAGUGGCUGUGGCUAGACUGUC | 0.06 |
| GGAAAAGCUGAACACAACGUGGCAAAGUGGCUGUGGCUAGACUGCC | 0.06 |
| GGAAGAACUCAACACAGUGUGGCAAAUUGGCUGUCACUAGACUGCC | 0.11 |
| GGAACAGCUCAUCACAGCGUGGCAAAGUGACUAUCGCUAGACUGCC | 0.05 |

| Variant | self-cleavage |
| --- | --- |
| GGAAUAGCUCAACACAGCGUGGCAAAGUGGCUGUGGCGAGACUGCC | 0.03 |
| GGAAGACCCCAACACAUCGUGGCAAAGUGGCUGUGGCUAGACUCCC | 0.08 |
| GGAAGAGCUCAACACAGCUUGGCACAGUGGCUGUGGCUAGAAUGCC | 0.06 |
| GGAAGAGCUCAACACAGCGUGGCAAAGUGGCUGUGGGUAUACUGCC | 0.23 |
| GGAAGAACUCAAUACAGCGAGGCAAAGUGGCUGUGGCUAGGCUGCC | 0.21 |
| GGAACAGCUAAACACAGCGUGGCAAAGUGGCUCUUUAUGGACUGCC | 0.05 |
| GGAAGAUCUCAACCCAGCGUGGCAAAGUGGCUUUGGCUAGACUGCC | 0.11 |
| GGAAUAGCUCAACACAGUGUGGCAAAGUGGCAGUGGCGUGAAUGCC | 0.02 |
| GGAAGACCUCAACACUGCGUGGCAAAGUGGCAGUGGCUAGACUGCC | 0.1 |
| GGAACAGCUCAACACAGCGUGGCAAAGUGGCUGUGGCUAGACUGCA | 0.13 |
| GGAAGAGCUCAACACACCGUGGCAAAGUGGUUGUGGCUAAACUGCC | 0.01 |
| GGAAGAUCUCAACACAGCAUGGCAAAGUGGCUGUGGCUAUACUACC | 0.12 |
| GGAAUAGCACAACACAGCGUGGCAAAGUGGCUGUGGCUAGACUGCC | 0.12 |
| GGAAGAGCUCAACACACCGUGGCAAAGUGGCUCUGGCUAGACUGCC | 0.08 |
| GGAAGAGCUCAACACAACGUGGCGAAGUGGCUGUGGCUAGACUGCC | 0.21 |
| GGAAGAGCUCAACACAGCAUGGCAAAGUGGCUGUGGCUAGAGUGCC | 0.12 |
| GGAAGACCUCAACACAGCGUGGCUUAGUGGCUAAGGCUAGACUGCC | 0.07 |
| GGAAGAGCUCAACACAACGUGGCGGAGUGGCUGUCACUAGACUGCC | 0.22 |
| GGAAGACCUCAACACAGCGUACCAAAGUGGCUGUGGAUAGACUGCC | 0.03 |
| GGAAGAGCUCAACACAGCGUCGCAAAUUGUCUGUGGCUAGACUGCC | 0.59 |
| GGAACAGCUAAAAACAGCGUGGCAAAGUCGCUGUGGCUAGACUGCC | 0.02 |
| GGAAAAGCUGAACACAUCGUGGCAAACUGGCUGUGGCUAGACUGCC | 0.03 |
| GGAAGAUCUCAACACAGCGUGGCAAAGUGGCUGUGGCUAAACUGCC | 0.32 |

| Variant | self-cleavage |
| --- | --- |
| GGAAGAGCUCAACACAGCCUGGCAAAGUGGCAGUGGCUAGACUGCC | 0.05 |
| GGAAGAACUCAACACAGCGUGGCAAAGUGGCUGGGGCUAGACUGCC | 0.29 |
| GGAAGAGCUCAACACAGCGUGGCAAAGUGGUUGUGGCGAGACUGCC | 0.08 |
| GGAAAAGCUCGACACAGCGUGGCAAAGUGGCUGUGGCUAGACUGCC | 0.12 |
| GGAAAAGCUCAACACAACGUGGCAACGUGGCUGUGGCUAGACUGCC | 0.2 |
| GGAACAGCUCAACACAGCGUGGCAGAGUGGCUGUGGCUAGACUGCC | 0.19 |
| GGAAGAACUCAACACAGCGUGGAAAAGUUGCUGUGGCUAGACCGCC | 0.06 |
| GGAAUGGCUCAACACAGCGUGGCAAAGUGGCUGUGGCUAGACGGCC | 0.28 |
| GGAAUAGCUCAAGACAGCGUGGCACAGAGGCUGUGCCUAGACUGCC | 0.43 |
| GGAAGAGCUCAACACAAACUGGCAAAGUGGAUGUGGCUAGACUGCC | 0.06 |
| GGAAGAGCUCAACACAGCGUGGCAAAGUGGUUGGGGCUAGACUGCG | 0.09 |
| GGAAGAGCUCAACACAAAGUGGCAAAGUGGCUGUGGCUAGACUGCC | 0.25 |
| GGAAGAGCUCAACACAGCUUAGCAAAGUGGCUGUUGCGAGACUGCC | 0.04 |
| GGAAGAGCUCAACACAGCGUGGCAAAGUGGCUGUGGUUAGAAUGCC | 0.07 |
| GGAAGAACUCAACACAGCGUGGCAAGGUGGCUGGGGCUAGACUGGC | 0.13 |
| GGAAGAGCUCAACACAGCCUGGCAGAGUGGCUGUGGCUAGACUGCC | 0.1 |
| GGAAGAGCUCAACACAGCGUGGCAAAGUGGCUGUGGUGAGACUGCC | 0.03 |
| GGAAGACCUCAACAAAGCGUGGCAAAGUGGUUGUGGCUAGACUGCC | 0.06 |
| GGAAGAGCUCAACACAUCUUGGCAACGUGGCUGUGGCUAGACUGCC | 0.15 |
| GGAAAAUCUCAACACAGCGUGGCAUAGAGGCCGAGGCUUGACUGCC | 0.11 |
| GGAAAAGUUCAAAACAGCGUGGCAAAGUGGCGGUGGCUAGACUACC | 1.05 |
| GGAAGAGCUCAACACAGCCUGACAAAGUGGCGGUGGCAAGACUGCC | 0.04 |
| GGAAGAGCUCAACACACCUUGGCAAAGUGGCUGUGGCUGGACUGGC | 0.59 |

| Variant | self-cleavage |
| --- | --- |
| GGAACAGCUCAACACAGCGUGGCAAAGUGUCUGUGGCUAGACUGCC | 0.05 |
| GGAAUAUCUCAACACAGCGUGGCAAAGUGGCUGUGGGUAGACUGCC | 0.14 |
| GGAAGAACUCAACACAGCGUGGCAAAGUGGCUGAGGCUGUAUUGCC | 0.03 |
| GGAACAGCUCAACACAGCGUGGCAAAGUGGCUGUGUCUAGACUGCC | 2.61 |
| GGAAUAGCUCAACACAGCGUGGCAAAGUGGCUGUGGCUACACUGUG | 0.03 |
| GGAAGACCUCAACACUGCGUGGCAAAGUGCCUGUGGCUAGACUGCC | 0.08 |
| GGAAGAUCUCAACACAGCGUGGCAAAGUGGCUGUGGCUAGGCUGCC | 0.2 |
| GGAAGAGCUCAACACAUCGUGGCAAAGUGGCUGUGGCUAUACUGCC | 0.23 |
| GGAAGACCUCCACACGGCGUGGCAAAGUGGCUGUGGCUAGACUUGG | 0.02 |
| GGAAGAGCUCAACACAGCGUCGCAAAGUGGCUGUGGCUAGACGGCC | 0.03 |
| GGAAGAGCUCAACACAGCUUGGCAAAGUUGCUGUGGCUAGAAUGCC | 0.28 |
| GGAAGAUCUCAACGGAGGGUGGCAAACUGGCUGUGGCUAGACUGCC | 0.06 |
| GGAAGAGCUCAACACAGCUUGGCAAAGUGGCUGUGGCUUGACUGCU | 0.01 |
| GGAAGACCUAUACACAGCGUGGCAAAGUGGGUGUGGCUAGACUGCC | 0.05 |
| GGAAUAGCUAAACACAGCGUGGCAAAGCGGCUGUGGCUGGACUGCC | 0.06 |
| GGAAGAGCUCAACACACCGUGGCAAAGAGGCUGUGUCUAGACUGCC | 0.06 |
| GGAAGAUCUUAACACAGCGUGGCAAAGUGGCUGUGGCUAGUCUGCC | 0.27 |
| GGAAUGGCUCAACACAGCGUGGCAAAGAGGUUGUGGCUCGACUGCC | 0.19 |
| GGAAAAGCUCAACACAGCGUGGCAAAGUGGCUGUGGGUAGACUGCC | 0.24 |
| GGAAGAGCUCAACACAGCGUUGCAGAGUGACUGUGGCUAGACUGCC | 0.46 |
